Reference: the supplement of paper PMC8728848
The other results are listed elsewhere or left out.

What was measured:
Assay in all cases: glycan array binding signal (z-score within array); higher = stronger binding
Conditions in all cases: glycan notation: IUPAC condensed, linker removed
[1] = biological target: Fuc(a1-2)Gal
Outline: (§1)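 The binding signal is a Z-score computed within each array and averaged over linkers. Arrays of the same protein sequence at different concentrations or buffers were also averaged together. Data originate from 3228 arrays in the Consortium for Functional Glycomics database, kept only where the protein sequence was available.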

[2] = biological target: Fuc(a1-2)Gal(b1-3)GalNAc
Outline: as §1

[3] = biological target: Fuc(a1-2)Gal(b1-3)GalNAc(a1-3)[Fuc(a1-2)]Gal(b1-4)Glc
Outline: as §1

[4] = biological target: Fuc(a1-2)Gal(b1-3)GalNAc(a1-3)[Fuc(a1-2)]Gal(b1-4)GlcNAc
Outline: as §1

[5] = biological target: Fuc(a1-2)Gal(b1-3)GalNAc(b1-3)Gal
Outline: as §1

[6] = biological target: Fuc(a1-2)Gal(b1-3)GalNAc(b1-3)Gal(a1-4)Gal(b1-4)Glc
Outline: as §1

[7] = biological target: Fuc(a1-2)Gal(b1-3)GalNAc(b1-4)[Neu5Ac(a2-3)]Gal(b1-4)Glc
Outline: as §1

[8] = biological target: Fuc(a1-2)Gal(b1-3)GlcNAc
Outline: as §1

[9] = biological target: Fuc(a1-2)Gal(b1-3)GlcNAc(b1-2)Man(a1-3)[Fuc(a1-2)Gal(b1-3)GlcNAc(b1-2)Man(a1-6)]Man(b1-4)GlcNAc(b1-4)GlcNAc
Outline: as §1

[10] = biological target: Fuc(a1-2)Gal(b1-3)GlcNAc(b1-2)Man(a1-3)[Fuc(a1-2)Gal(b1-3)GlcNAc(b1-2)Man(a1-6)]Man(b1-4)GlcNAc(b1-4)[Fuc(a1-6)]GlcNAc
Outline: as §1

[11] = biological target: Fuc(a1-2)Gal(b1-3)GlcNAc(b1-3)Gal(b1-4)Glc
Outline: as §1

[12] = biological target: Fuc(a1-2)Gal(b1-3)GlcNAc(b1-3)GalNAc
Outline: as §1

[13] = biological target: Fuc(a1-2)Gal(b1-3)GlcNAc(b1-3)[Fuc(a1-2)Gal(b1-3)GlcNAc(b1-6)]GalNAc
Outline: as §1

[14] = biological target: Fuc(a1-2)Gal(b1-3)GlcNAc(b1-3)[Gal(b1-4)GlcNAc(b1-6)]Gal(b1-4)Glc
Outline: as §1

[15] = biological target: Fuc(a1-2)Gal(b1-3)GlcNAc(b1-3)[Neu5Ac(a2-6)Gal(b1-4)GlcNAc(b1-6)]Gal(b1-4)Glc
Outline: as §1

[16] = biological target: Fuc(a1-2)Gal(b1-3)GlcNAc6S
Outline: as §1

[17] = biological target: Fuc(a1-2)Gal(b1-3)[Fuc(a1-4)]GlcNAc
Outline: as §1

[18] = biological target: Fuc(a1-2)Gal(b1-3)[Fuc(a1-4)]GlcNAc(b1-2)Man(a1-3)[Fuc(a1-2)Gal(b1-3)[Fuc(a1-4)]GlcNAc(b1-2)Man(a1-3)]Man(b1-4)GlcNAc(b1-4)GlcNAc
Outline: as §1

[19] = biological target: Fuc(a1-2)Gal(b1-3)[Fuc(a1-4)]GlcNAc(b1-2)Man(a1-3)[Fuc(a1-2)Gal(b1-3)[Fuc(a1-4)]GlcNAc(b1-2)Man(a1-6)]Man(b1-4)GlcNAc(b1-4)[Fuc(a1-6)]GlcNAc(b1-4)[Fuc(a1-6)]GlcNAc
Outline: as §1

[20] = biological target: Fuc(a1-2)Gal(b1-3)[Fuc(a1-4)]GlcNAc(b1-3)[Fuc(a1-3)[Gal(b1-4)]GlcNAc(b1-6)]Gal(b1-4)Glc
Outline: as §1

[21] = biological target: Fuc(a1-2)Gal(b1-3)[Fuc(a1-4)]GlcNAc(b1-3)[Gal(b1-4)GlcNAc(b1-6)]Gal(b1-4)Glc
Outline: as §1

[22] = biological target: Fuc(a1-2)Gal(b1-4)Glc
Outline: as §1

[23] = biological target: Fuc(a1-2)Gal(b1-4)Glc6S
Outline: as §1

[24] = biological target: Fuc(a1-2)Gal(b1-4)GlcNAc
Outline: as §1

[25] = biological target: Fuc(a1-2)Gal(b1-4)GlcNAc(b1-2)Man
Outline: as §1

[26] = biological target: Fuc(a1-2)Gal(b1-4)GlcNAc(b1-2)Man(a1-3)[Fuc(a1-2)Gal(b1-4)GlcNAc(b1-2)Man(a1-6)]Man(b1-4)GlcNAc(b1-4)GlcNAc
Outline: as §1

[27] = biological target: Fuc(a1-2)Gal(b1-4)GlcNAc(b1-2)Man(a1-3)[Fuc(a1-2)Gal(b1-4)GlcNAc(b1-2)Man(a1-6)]Man(b1-4)GlcNAc(b1-4)[Fuc(a1-6)]GlcNAc
Outline: as §1

[28] = biological target: Fuc(a1-2)Gal(b1-4)GlcNAc(b1-2)[Fuc(a1-2)Gal(b1-4)GlcNAc(b1-4)]Man(a1-3)[Fuc(a1-2)Gal(b1-4)GlcNAc(b1-2)Man(a1-6)]Man(b1-4)GlcNAc(b1-4)GlcNAc
Outline: as §1

[29] = biological target: Fuc(a1-2)Gal(b1-4)GlcNAc(b1-3)Gal(b1-4)GlcNAc
Outline: as §1

[30] = biological target: Fuc(a1-2)Gal(b1-4)GlcNAc(b1-3)Gal(b1-4)GlcNAc(b1-2)Man(a1-3)[Fuc(a1-2)Gal(b1-4)GlcNAc(b1-3)Gal(b1-4)GlcNAc(b1-2)Man(a1-6)]Man(b1-4)GlcNAc(b1-4)GlcNAc
Outline: as §1

B1: B1567 (Bifidobacterium sp) (protein)
chain: MKFTTAKKAVALTGAVAMLVSVAACGSDSGKSSQPAQDSDVKEITVWAWEPSLTQVAKDFEKETGIKVDLKNVGTNTKEYTQLDNAIEAGSGAPDVAQVEYYAVPQYAIKGNLLDITDKTSGYKDFYTPGPWASVQFAGKVYGLPMDSGPMAFFYNKEVFDKAGVDAEQIKTWDQYYDAAKKIHALGDNYYITSDTGDAGFFDSMTWLAGAKPFQTSSDGSEVTVNLTEDKGVKTFTDFWQKLLDEGLLDTKTAGWSEDWFKGMVDGTIASLFTGAWMPANLANSAADGAGKWRVTQMPTADGSTTNSENGGSSLAVLASTKKADAAYQFIEYANHGAGVATRVAGGAFPADKASLEKDSFKNATTVKNADGQDVDYFGGQKYNEVLAQAAENVSSGYQFLPFEVKARTIFGDYFGKSYTGDQKLSDGVAAWQKALQDYGKDQGFTVK
- glycan array binding signal (z-score) [1]: -0.117
- glycan array binding signal (z-score) [2]: -0.135
- glycan array binding signal (z-score) [3]: -0.161
- glycan array binding signal (z-score) [4]: -0.097
- glycan array binding signal (z-score) [5]: -0.128
- glycan array binding signal (z-score) [6]: -0.037
- glycan array binding signal (z-score) [7]: -0.136
- glycan array binding signal (z-score) [8]: -0.124
- glycan array binding signal (z-score) [9]: -0.156
- glycan array binding signal (z-score) [10]: -0.103
- glycan array binding signal (z-score) [11]: -0.125
- glycan array binding signal (z-score) [12]: -0.117
- glycan array binding signal (z-score) [13]: -0.125
- glycan array binding signal (z-score) [14]: -0.135
- glycan array binding signal (z-score) [15]: -0.108
- glycan array binding signal (z-score) [16]: -0.155
- glycan array binding signal (z-score) [17]: -0.003
- glycan array binding signal (z-score) [18]: -0.058
- glycan array binding signal (z-score) [19]: -0.08
- glycan array binding signal (z-score) [20]: -0.143
- glycan array binding signal (z-score) [21]: -0.027
- glycan array binding signal (z-score) [22]: -0.094
- glycan array binding signal (z-score) [23]: -0.184
- glycan array binding signal (z-score) [24]: -0.101
- glycan array binding signal (z-score) [25]: -0.141
- glycan array binding signal (z-score) [26]: -0.116
- glycan array binding signal (z-score) [27]: -0.101
- glycan array binding signal (z-score) [28]: -0.052
- glycan array binding signal (z-score) [29]: -0.164
- glycan array binding signal (z-score) [30]: -0.015
